Data reported in PubChem BioAssay AID1240 (Sanford-Burnham Center for Chemical Genomics, 2008).
The campaign covered roughly 50,000 compounds. About 800 (1.6%) showed an effect of 50% or more. This is one part of the list.

These molecules were tested against Bcl-2-like protein 10 (Homo sapiens) (UniProt Q9HD36) (assay: TR3 peptide-Bcl-B binding displacers, biochemical primary FP assay, phenotype converters (AID 1240;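 note: 0% = Bcl-B with tracer peptide and DMSO and 100% = tracer peptide lacking Bcl-B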)). Settings: GST-Bcl-B / FITC-TR3 peptide fluorescence polarization; stronger effect = higher value; compound at 3.75 mg/L.
Sequence of UniProt Q9HD36 (Q9HD36 whole entry, looked up): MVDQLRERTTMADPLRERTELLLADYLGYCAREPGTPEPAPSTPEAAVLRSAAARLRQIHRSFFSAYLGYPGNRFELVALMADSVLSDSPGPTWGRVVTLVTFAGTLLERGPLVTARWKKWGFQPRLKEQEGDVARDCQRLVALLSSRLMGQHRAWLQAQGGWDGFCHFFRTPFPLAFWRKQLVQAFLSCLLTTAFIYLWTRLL

First: O=C(NC(=Nc1nc2ccccc2o1)NC(=O)c1ccccc1)c1ccccc1
Second: COc1ccccc1C(=O)OC(C(=O)c1ccccc1)c1ccccc1 (centres undefined)
The displacement of the first is higher: -0.2% for the first, -10.5% for the second.

First: Cc1cc(NCc2ccco2)nc2ccccc12
Second: Nn1c(Nc2ccccc2)nc2ccccc2c1=O
The displacement of the first is higher: 1.4% for the first, -15.5% for the second.

Going from `O=C(NC(c1ccccc1)c1ccccc1)c1ccc([N+](=O)[O-])cc1Cl` to `Cc1c(NC(=O)c2cc(-c3ccccc3)nc3ccccc23)cccc1[N+](=O)[O-]`, the displacement falls from 3.3% to -5.7%.

Compared with `CC(=O)Nc1ccc(S(=O)(=O)N(c2cccnc2)S(=O)(=O)c2ccc(NC(C)=O)cc2)cc1`, `Fc1ccc(NC(=S)Nc2ccc(Oc3ccccc3)cc2)cc1` is lower in displacement: 12.5% for the first, 0.2% for the second.

Going from `CC(C)NC(=O)c1cnn2c(C(F)(F)F)cc(-c3ccc(F)cc3)nc12` to `CCOC(=O)c1cc(-c2ccc(Cl)cc2)nc2ccccc12`, the displacement falls from 11.6% to -8.6%.

Compared with `O=C(COc1ccccc1)N1CCN(C(=O)c2ccc(F)cc2)CC1`, `COc1ccc(/C(N)=N/OC(=O)COc2ccccc2)cc1` is higher in displacement: -1.8% for the first, 12.9% for the second.

Going from `CC(C)=C1C2C=CC1C1C(=O)N(c3ccc(F)cc3)C(=O)C21` (centres undefined) to `O=C(O)c1ccccc1/C=C1/SC(=S)N(c2ccc(F)cc2)C1=O`, the displacement falls from 6.6% to -3.6%.

Going from `COc1ccc(/C=C/C(=O)N(C)C2CCCCC2)cc1Br` to `CCOC(=O)COc1ccc(/C=N\n2nnnc2N)cc1OC`, the displacement falls from 11% to 0.3%.

First: O=C(Nc1ccc([N+](=O)[O-])cc1Cl)c1cccnc1
Second: O=C(/C=C/c1cccc([N+](=O)[O-])c1)Nc1ccc(F)cc1
The displacement of the first is higher: -1.7% for the first, -6.9% for the second.

First: COc1ccccc1CNC(=O)c1ccc(CN(c2ccccc2)S(=O)(=O)c2ccccc2)cc1
Second: COc1ccccc1CNC(=O)c1cccc([N+](=O)[O-])c1C
The displacement of the first is higher: 3.3% for the first, -7.3% for the second.

Compared with `Cc1ccc(NC(=O)c2ccc(C3SCC(=O)N3Cc3ccccc3)cc2)c(C)c1` (centres undefined), `O=C(NCc1ccccc1)C(O)(c1ccc(F)cc1)c1ccc(F)cc1` is lower in displacement: -3.6% for the first, -12.1% for the second.

First: O=c1c2ccc(Br)c3cccc(c32)c2nc3cccc4cccc(c43)n12
Second: c1ccc2cc(Cn3cnc4ccccc43)ccc2c1
The displacement of the first is higher: 7.1% for the first, -17.8% for the second.

Compared with `CN1CCN(C2CC(=O)N(c3ccc(N4CCOCC4)cc3)C2=O)CC1` (centres undefined), `O=C(COc1ccc(Br)cc1)Nc1ccc(N2CCOCC2)cc1` is higher in displacement: -9.5% for the first, -3.5% for the second.

Going from `CCn1cc(C(=O)NN)c(=O)c2cc(Br)ccc21` to `CCN(CC)c1ccc(NC(=O)c2cc(Br)ccc2Cl)cc1`, the displacement falls from 20.2% to 16.4%.

Going from `COc1ccc2c(c1)CC/C(=C/Nc1ccc3c(c1)OCO3)C2=O` to `O=c1/c(=C/c2ccc3c(c2)OCO3)sc2nc3ccccc3n12`, the displacement rises from 3.5% to 69.3%.

Going from `CC(C)(C)C(=O)c1no[n+]([O-])c1C(=O)C(C)(C)C` to `CC(C)(C)NC(=O)CCNS(=O)(=O)c1ccccc1[N+](=O)[O-]`, the displacement rises from -0.4% to 10.5%.

First: O=C1/C(=C\C=C\c2ccc([N+](=O)[O-])cc2)SC(=S)N1NS(=O)(=O)c1ccccc1
Second: C=CCN1C(=O)/C(=C\C=C\c2ccccc2)SC1=S
The displacement of the first is higher: 39.9% for the first, 6.3% for the second.

Going from `CN(c1ccccc1)c1ccc(C2NN=C(c3ccccc3)S2)cc1` (centres undefined) to `O=C(NNc1nc(-c2ccccc2)cc(-c2ccccc2)n1)Nc1ccccc1`, the displacement falls from 4.4% to -5.9%.

First: O=C(Nc1ccccc1)C1(S(=O)(=O)c2ccccc2)CC1
Second: O=C(O)CN=C(NS(=O)(=O)c1ccccc1)c1ccccc1
The displacement of the first is lower: 6.5% for the first, 8.8% for the second.

Compared with `Cc1ccccc1OCc1nc(-c2cccnc2)no1`, `COc1cccc(OC)c1C(=O)c1ccccc1` is higher in displacement: -3.1% for the first, 9.2% for the second.

Going from `COc1cc(/C=N/N=c2\sc3ccccc3n2C)ccc1O` to `COc1ccc(-c2nnc(NC(=O)c3ccccc3Br)s2)cc1OC`, the displacement falls from 9.8% to -12.1%.

Going from `C=CCN1C(=O)/C(=C\c2ccc(-c3cccc(Cl)c3)o2)SC1=S` to `C=CCN1C(=O)/C(=C2/C=Cc3cc(C)ccc3N2CC)SC1=S`, the displacement rises from 1.4% to 15.9%.

Going from `Nc1cccc(C(=O)c2cccc(N)c2)c1` to `O=C(Nc1cccc(I)c1)c1ccccc1C(F)(F)F`, the displacement falls from 4.3% to 0.9%.

Going from `O=C(c1ccc(Cl)cc1)N1CCN=C1c1ccccc1` to `O=C(NCc1ccc(Cl)cc1)C(=O)Nc1cccc2ccccc12`, the displacement falls from 14.8% to -6%.

Going from `CCOc1ccc(N(CC(=O)Nc2cc(C)cc(C)c2)S(C)(=O)=O)cc1` to `COc1ccc(N(CC(=O)Nc2ccccc2C)S(C)(=O)=O)cc1`, the displacement falls from 4.3% to 0.6%.

Compared with `COc1ccccc1N1CCN(C(=O)c2ccco2)CC1`, `COc1ccc(C(=O)N2CCN(C(=O)c3cccc(Cl)c3)CC2)cc1OC` is lower in displacement: -3.5% for the first, -7.4% for the second.

First: CN1CCN(CCCCOc2cccc3ccccc23)CC1
Second: Brc1ccc(/C=N/N2CCN(c3ccccc3)CC2)s1
The displacement of the first is lower: -6.4% for the first, 5.7% for the second.

Compared with `O=C(O)CCC(=O)N1N=C(c2ccc(Br)cc2)CC1c1ccccc1` (centres undefined), `O=C(NCCOc1ccccc1F)c1ccc(Br)cc1` is lower in displacement: 14.4% for the first, 12.8% for the second.

Compared with `C/C(=N\NC(=O)c1cc(C2CC2)[nH]n1)c1ccc([N+](=O)[O-])cc1`, `O=C(N/N=C/c1cccc([N+](=O)[O-])c1)c1cc[n+](CCO)cc1` is higher in displacement: -10.1% for the first, -1.1% for the second.

First: COc1cccc(/C=N/Nc2nc(C)cc(=O)[nH]2)c1O
Second: O=c1[nH]nc(N/N=C/c2cccc3ccccc23)c(=O)[nH]1
The displacement of the first is higher: 13.4% for the first, -3.4% for the second.

Compared with `O=C(CCCOc1ccccc1)Nc1ccccc1[N+](=O)[O-]`, `OCCCc1nc2ccccc2n1Cc1ccccc1` is higher in displacement: -3.8% for the first, 2.4% for the second.

First: COC(=O)C(NC(=O)c1ccccc1Br)C(C)C (centres undefined)
Second: Cc1ccccc1C(=O)Nc1cc(C(N)=O)c(Cl)cc1Cl
The displacement of the first is lower: -0.9% for the first, 0.6% for the second.

Going from `COc1cc(Br)c(CCNC(=O)c2ccc(Cl)cc2)cc1OC` to `COc1ccc(C(=O)NCCC(C)C)cc1[N+](=O)[O-]`, the displacement falls from 4% to 3%.

First: Cc1cccc(-n2c(O)c(C3=c4ccccc4=NC3=O)sc2=O)c1
Second: COc1cccc(-n2sc3c(c2=S)-c2ccccc2NC3(C)C)c1
The displacement of the first is higher: 10.3% for the first, -6.6% for the second.

Going from `Cc1ccc(C(=O)O/N=C(/c2nonc2N)N2CCOCC2)cc1` to `O=CN1CCN(C(=O)c2ccc(I)cc2)CC1`, the displacement falls from 9.1% to -3.9%.

Compared with `Cc1ccc(S(=O)(=O)N=Nc2c(O)[nH]c3ccc(Br)cc23)cc1C`, `COc1ccc2nc(N/C(N)=N/S(=O)(=O)c3ccc(C)cc3)nc(C)c2c1` is lower in displacement: 10.9% for the first, 5.2% for the second.

Compared with `O=C(O)C1C2C=CC(C3CC23)C1C(=O)Nc1ccccc1Cl` (centres undefined), `O=C(Nc1ccccc1Cl)c1ccccc1C(F)(F)F` is lower in displacement: 3.9% for the first, -8% for the second.

Going from `O=C(CCNc1cc(Cl)cc(Cl)c1)c1ccco1` to `C=CCNC(=O)C(=O)NCc1ccc(Cl)cc1Cl`, the displacement rises from -15.8% to 12.4%.

Compared with `COC(=O)C1=C(C)N(Cc2ccco2)C(=O)/C1=C\c1ccc(O)cc1`, `O=C1c2ccccc2NC(c2c(Cl)cccc2Cl)N1Cc1ccco1` (centres undefined) is higher in displacement: -0.9% for the first, 11.4% for the second.

Going from `COc1ccc(-n2c(=S)[nH]c3nc4c(cc3c2=O)COC(C)(C)C4)cc1` to `COc1ccc(Nc2cc(C)nc(-n3nc(C)cc3C)n2)cc1`, the displacement rises from -8.6% to 12.1%.

Compared with `CN(C)c1ccc(/C=N/N2C(=O)CSC2=S)cc1`, `Cc1ccc(/C=C2\SC(=S)N(CCC(=O)OCCN(C)C)C2=O)cc1` is higher in displacement: -18.8% for the first, 13.1% for the second.

Going from `COc1ccc(O)c(CN2CCN(Cc3ccc([N+](=O)[O-])cc3)CC2)c1` to `O=C(c1nn2c(c1Cl)NC(c1ccc(F)cc1)CC2C(F)(F)F)N1CCN(Cc2ccccc2)CC1` (centres undefined), the displacement rises from 2.9% to 13.2%.

Going from `COc1c(Cl)cc(C(=O)N2CCN(c3ccc([N+](=O)[O-])c(NC4CC4)c3)CC2)cc1Cl` to `COc1ccccc1C/C(N)=N/OC(=O)c1ccc(C)c([N+](=O)[O-])c1`, the displacement falls from 9.7% to 8.7%.

Going from `NC(=O)SCC(=O)Nc1ccccc1O` to `Cc1ccc(NC(=O)CSC(N)=O)cc1Cl`, the displacement falls from 4.9% to 4%.

Going from `Cc1ccc(-c2cc(C(=O)N3CC(C)CC(C)C3)c3ccccc3n2)cc1C` (centres undefined) to `CCN(CC)C(=O)c1cc(-c2ccc(OC)cc2)nc2ccccc12`, the displacement falls from 0.3% to -2.5%.

Going from `CCCC(=O)Nc1cccc(C(=O)Nc2ccc(C(=O)O)cc2)c1` to `O=C(COc1ccc(/C=N/NS(=O)(=O)c2ccccc2)cc1)Nc1cccc(Cl)c1`, the displacement falls from 6.8% to 5.1%.

Going from `CCC1(O)C(C)C(c2ccc(Cl)cc2)NC(c2ccc(Cl)cc2)C1C` (centres undefined) to `CCCC1(O)CC(c2ccccc2)NC(c2ccccc2)C1CC` (centres undefined), the displacement rises from 6.1% to 10%.

Going from `COc1ccc(C2C3=C(CCCC3=O)OC3=C2C(=O)CCC3)cc1` to `Cc1c(OC(C)C(=O)O)ccc2c3c(c(=O)oc12)CCC3` (centres undefined), the displacement rises from 6.9% to 10%.

Compared with `CC1C(C(=O)N(C=O)c2ccccc2F)C2C=CC1C21CC1` (centres undefined), `O=c1[nH]c(=O)n(-c2ccccc2F)c(O)c1C=NCc1ccccc1F` is higher in displacement: -11.7% for the first, 4.2% for the second.

Going from `Cc1ccc(S(=O)(=O)NC(C)C2C3CC4CC(C3)CC2C4)c(C)c1` (centres undefined) to `Cc1ccc(C2=C(C#N)C(N)=C(C#N)C3=CCCC32)c(C)c1` (centres undefined), the displacement rises from 2% to 34.7%.

First: CC(Oc1ccc(Cl)cc1Cl)C(=O)NCCN(C)C (centres undefined)
Second: CN1C(=O)/C(=N/OC(=O)c2ccc(Cl)cc2Cl)c2ccccc21
The displacement of the first is higher: 10.5% for the first, -8.5% for the second.

Compared with `COc1ccccc1C(=O)N/C(=C\c1ccc(Br)cc1)c1nc2ccccc2[nH]1`, `COc1ccc(-c2csc(Nc3ccccc3)n2)cc1` is higher in displacement: -0.9% for the first, 7.3% for the second.

Going from `CCCOc1ccc(Cn2ccnc2)cc1[N+](=O)[O-]` to `C/C(=C1/C(=O)N(c2ccc([N+](=O)[O-])cc2)N=C1c1ccccc1)N(C)C`, the displacement falls from 4.5% to -10.2%.

Going from `O=C(O)CSc1nncc2ccccc12` to `CCSc1nnc2c(n1)OC(c1ccc(C(=O)O)cc1)Nc1ccccc1-2` (centres undefined), the displacement rises from 3.8% to 9.9%.

First: O=C1Nc2c(c3ccccc3oc2=O)Nc2ccccc21
Second: COC(=O)C1=C(C)NC(=S)NC1c1ccc(SC)cc1 (centres undefined)
The displacement of the first is lower: 0.7% for the first, 1.4% for the second.

First: CC(C)Oc1ccc(Cc2c(O)[nH]c(=S)[nH]c2=O)cc1
Second: CC(=O)COc1ccc2c(C(F)(F)F)cc(=O)oc2c1
The displacement of the first is higher: -1.9% for the first, -9% for the second.

First: COc1cc2c(cc1OC)C1=NNC(=O)C1=NC(C)(C)C2
Second: N#Cc1ccc(NC(=O)/C=C\C(=O)O)cc1
The displacement of the first is higher: -2.9% for the first, -3.4% for the second.
